Measured values from PubChem BioAssay AID2147 (National Center for Advancing Translational Sciences (NCATS), 2009).
The campaign covered roughly 230,000 compounds. About 3,600 (1.6%) were called active. Inconclusive results, whose numbers are uncertain, are shown with a selection of clear calls. Calls come from the whole dose curve; as a rule, active = well fitted inhibition curve with a large enough effect (not every such curve was filed as active); inconclusive = small, poorly fitted or top-dose-only effect, or another doubt; inactive = no such curve, though single readings can be large or run the other way. Potencies of inconclusive entries are doubtful fits and often do not repeat.

The molecules below were run against Lysine-specific demethylase 4E (Homo sapiens) (UniProt B2RXH2) (assay: qHTS Assay for Inhibitors of Human Jumonji Domain Containing 2E (JMJD2E)). Settings: JMJD2E catalytic domain, FDH-coupled NADH fluorescence (FDH is formaldehyde dehydrogenase); series mostly up to 57.1 µM; activity change, negative = inhibition: at the top concentration.
Note: nearly all actives have a fitted effect of over 50% in size.
Potency is the fitted concentration of half-maximal effect; tags give direction and shape of the fitted curve.
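Throughout, for activity change, negative = inhibition: 0% = wells with enzyme and -100% = buffer wells without enzyme.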

Chain of UniProt B2RXH2 (B2RXH2 whole entry, looked up, the tested form may be a part): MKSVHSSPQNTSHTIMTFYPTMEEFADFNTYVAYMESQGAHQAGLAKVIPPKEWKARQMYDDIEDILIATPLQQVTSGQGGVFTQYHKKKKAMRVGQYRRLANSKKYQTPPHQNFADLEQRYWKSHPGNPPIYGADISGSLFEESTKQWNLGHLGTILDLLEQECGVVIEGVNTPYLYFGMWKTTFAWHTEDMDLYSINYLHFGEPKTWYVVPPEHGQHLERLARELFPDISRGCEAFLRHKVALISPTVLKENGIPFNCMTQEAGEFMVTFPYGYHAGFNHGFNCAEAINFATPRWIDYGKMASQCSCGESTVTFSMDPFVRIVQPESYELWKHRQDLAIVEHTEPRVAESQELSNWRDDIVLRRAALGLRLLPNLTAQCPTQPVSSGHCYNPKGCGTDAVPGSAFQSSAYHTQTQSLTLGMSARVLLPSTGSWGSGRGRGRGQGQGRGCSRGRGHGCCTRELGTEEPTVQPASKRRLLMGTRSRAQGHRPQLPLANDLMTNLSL

Row | SMILES | Potency | activity change, negative = inhibition
1 | Nc1c(C(=O)Nc2nc3ccccc3s2)sc2nc(-c3cccs3)ccc12 | inconclusive: 0.708 µM [inhibitor, partial curve, poor fit] | –
2 | COc1cc(OC)c2c(C)c(Cl)c(=O)oc2c1 | inconclusive: 15.8 µM [inhibitor, partial curve] | –
3 | Cc1c(NC(=S)NC(=O)c2sc3ccccc3c2Cl)cccc1C(=O)O | inconclusive: 25.1 µM [inhibitor, single point] | –
4 | CC(=O)N1CCc2cc(C(=O)CN3CCN(C(=O)c4ccco4)CC3)ccc21 | inconclusive: 31.6 µM [inhibitor, single point] | –
5 | Fc1ccccc1CN1CCCCCCC1 | – | inactive: -2.87%
6 | O=C(Nc1ccc(S(=O)(=O)NC2CCCCC2)cc1)c1ccc(Br)o1 | – | inactive: -3.94%
7 | CCCCCn1c(=O)[nH]c2cc(C(=O)NCCCN(C)Cc3ccccc3)ccc2c1=O | inconclusive: 31.6 µM [inhibitor, single point] | –
8 | COc1ccc(C(=O)N(O)c2ccccc2)cc1 | inconclusive: 28.2 µM [inhibitor, single point] | –
9 | CCOC(=O)C1(Cc2ccc(OC)cc2)CCN(C(=O)c2cc3ccccc3[nH]2)CC1 | inconclusive: 39.8 µM [inhibitor, single point] | –
10 | CNc1nc2[nH]c(=O)c3c(c2s1)OC(N)=C(C#N)C3c1ccccc1 (configuration not stated) | inconclusive: 39.8 µM [inhibitor, single point] | –
11 | O=C(CSCc1cc(=O)[nH][nH]1)Nc1ccc(F)cc1 | inconclusive: 0.794 µM [inhibitor, full curve, poor fit] | –
12 | O=C(Nc1ccc2ccccc2c1)[C@@H]1C[C@H]1[C@@H](NP(=O)(c1ccccc1)c1ccccc1)c1ccccc1 | inconclusive: 39.8 µM [inhibitor, single point] | –
13 | CCOC(=O)c1[nH]c2ccc(F)cc2c1NC(=O)CN1CCc2cc(OC)c(OC)cc2C1 | inconclusive: 35.5 µM [inhibitor, partial curve] | –
14 | CCCOc1ccc(NC(=O)C2CC(=O)N(C)C(=Nc3cccc(OC)c3)S2)cc1 (configuration not stated) | inconclusive: 20 µM [inhibitor, partial curve, poor fit] | –
15 | COc1ccc2c(c1)SC(C)CC2=O (configuration not stated) | inconclusive: 35.5 µM [inhibitor, single point] | –
16 | CC(C)C(NS(=O)(=O)c1cccc2nsnc12)C(=O)N1CCn2c1nc1ccccc12 (configuration not stated) | – | inactive: 4.13%
17 | O=C(c1cc(COc2ccc3ncccc3c2)on1)N1CCCCCC1 | inconclusive: 39.8 µM [inhibitor, single point] | –
18 | CC(C)CC(=O)Nc1cccc(-c2csc(-c3ccccc3)n2)c1 | inconclusive: 39.8 µM [inhibitor, single point] | –
19 | COc1ccc(OC)c(NC(=O)c2nc(-c3ccccc3)oc2C)c1 | inconclusive: 22.4 µM [inhibitor, single point] | –
20 | COc1ccc(C2=NN(C3=NN=C(N)Cc4ncnn43)C(O)(C(F)(F)F)C2)cc1 (configuration not stated) | inconclusive: 25.1 µM [inhibitor, partial curve] | –
21 | O=C(Oc1c(-c2ccccc2)c(=O)n2c3c(cccc13)CC2)c1ccc(Cl)cc1 | inconclusive: 35.5 µM [inhibitor, partial curve] | –
22 | COc1ccc(C2C(C#N)=C(C)NC3=C2S(=O)(=O)c2ccccc23)cc1 (configuration not stated) | inconclusive: 35.5 µM [inhibitor, single point] | –
23 | CCOc1cc(S(=O)(=O)NCc2ccc(OC)cc2)c(OCC)cc1-n1cnnn1 | inconclusive: 39.8 µM [inhibitor, single point] | –

Row | SMILES | Potency | activity change, negative = inhibition
24 | CCCS(=O)(=O)Nc1c(C(=O)O)[nH]c2ccccc12 | inconclusive: 25.1 µM [inhibitor, partial curve] | –
25 | O=c1[nH]c(NNC(=S)NC2CCCCC2)nc2c1C1(CCCC1)Cc1ccccc1-2 | inconclusive: 35.5 µM [inhibitor, single point] | –
26 | CC(C)COc1ccc(C(=O)Nc2scc(-c3ccc(Cl)cc3Cl)c2C(N)=O)cc1 | inconclusive: 35.5 µM [inhibitor, partial curve] | –
27 | CC(C)(C)NC(=O)NC(=O)COC(=O)Cc1coc2ccc3ccccc3c12 | inconclusive: 39.8 µM [inhibitor, single point] | –
28 | CCOC(=O)c1ccc(N2C(=O)CC(SCC(=O)Nc3ccc(S(N)(=O)=O)cc3)C2=O)cc1 (configuration not stated) | – | inactive: 1.39%
29 | CC(C)(CO)[C@@H](O)C(=O)NCCCO | – | inactive: 4.17%
30 | CSc1ccc(/C=N\NC(=O)CC(=O)NC(C)C)cc1 | inconclusive: 25.1 µM [inhibitor, partial curve] | –
31 | CN1CCc2c(sc3c2C(=O)NC(c2ccccc2)N3)C1 (configuration not stated) | inconclusive: 20 µM [inhibitor, partial curve] | –
32 | O=C(O)c1cc2c(ccc3ccccc32)o1 | inconclusive: 35.5 µM [inhibitor, single point] | –
33 | CCc1c(C)sc(NC(=O)c2cc(-c3ccco3)on2)c1C#N | inconclusive: 35.5 µM [inhibitor, single point] | –
34 | CC1CCN(S(=O)(=O)c2cccc(-c3cn4cc(Cl)ccc4n3)c2)CC1 | inconclusive: 31.6 µM [inhibitor, single point] | –
35 | Cn1c(SCC(=O)N/N=C/c2ccc([N+](=O)[O-])s2)nnc1-c1ccc(Cl)cc1 | – | inactive: 0.0082%
36 | CC(=O)NCc1ccc(-c2csc(N)n2)s1 | inconclusive: 22.4 µM [inhibitor, partial curve] | –
37 | Cc1cc(C)n(-c2cc(N3CCN(C(=O)c4ccc(C(C)(C)C)cc4)CC3)ccc2[N+](=O)[O-])n1 | – | inactive: -0.613%
38 | O=C(NCCC1=CCCCC1)C1CCC(CNS(=O)(=O)c2ccccc2)CC1 (configuration not stated) | – | inactive: 6%
39 | COc1cccc(-c2nnc3sc(C4CCCCC4)nn23)c1 | – | inactive: -1.58%
40 | Cc1cc(C)n2cc(CSc3nnnn3-c3ccccc3)nc2n1 | inconclusive: 25.1 µM [inhibitor, partial curve] | –
41 | Oc1ccc(/C=N/Nc2ccnc3cc(Cl)ccc23)cc1O | inconclusive: 35.5 µM [inhibitor, single point] | –
42 | Oc1c(C=Nc2cccnc2)sc2ccccc12 | inconclusive: 22.4 µM [inhibitor, partial curve] | –
43 | Cc1ccc(-n2ncc3c(=O)n(CC#N)cnc32)cc1C | inconclusive: 20 µM [inhibitor, partial curve] | –
44 | CC(=O)O/N=C/c1c(C)c(C=O)n2ccccc12 | inconclusive: 31.6 µM [inhibitor, single point] | –
45 | COc1ccccc1-c1cc(C(F)(F)F)nc(S(=O)(=O)CCCC(=O)N2CCOCC2)n1 | inconclusive: 31.6 µM [inhibitor, single point] | –
46 | CCOc1cc(C)c(S(=O)(=O)N2CCCCC2)cc1C | inconclusive: 39.8 µM [inhibitor, partial curve, poor fit] | –

Row | SMILES | Potency | activity change, negative = inhibition
47 | O=C(CSc1ccc(-c2nc3ccccc3[nH]2)cn1)Nc1ccc(S(=O)(=O)NC2CC2)cc1 | inconclusive: 25.1 µM [inhibitor, partial curve] | –
48 | COc1ccc(C2/C=C\CN(C(=O)NC(C)C)CC(=O)N2Cc2ccc(F)cc2)cc1 (configuration not stated) | – | inactive: -2.68%
49 | CNc1oc(-c2ccccc2Cl)nc1C#N | inconclusive: 28.2 µM [inhibitor, partial curve] | –
50 | COc1ccc2c(c1)N(C)/C(=C1/SC(=NCc3ccccc3)N(c3ccccc3)C1=O)S2 | inconclusive: 39.8 µM [inhibitor, single point] | –
51 | O=C(Nc1ccccn1)C(F)(F)C(F)(F)C(F)(F)C(F)(F)C(=O)Nc1ccccn1 | inconclusive: 35.5 µM [inhibitor, single point] | –
52 | Cc1cc(C(=O)NCc2cc(C)n(C)n2)sc1-c1ccccc1 | inconclusive: 35.5 µM [inhibitor, single point] | –
53 | O=C(NC(=S)Nc1ccccn1)c1cncc(Br)c1 | – | inactive: -9.46%
54 | O=C(O)c1cccc(-c2ccc(/C=N/NC(=O)C3COc4ccccc4O3)o2)c1 (configuration not stated) | inconclusive: 31.6 µM [inhibitor, partial curve] | –
55 | COc1ccc(NC(=O)c2cc3c(-c4ccc(OC)c(OC)c4)nn(C)c3s2)cc1OC | inconclusive: 39.8 µM [inhibitor, single point] | –
56 | Cc1ccc(-c2csc(Nc3ccc(S(N)(=O)=O)cc3)n2)o1 | – | inactive: -26.2%
57 | CC(C)C(C)NC(=O)COC(=O)/C=C/c1ccc(S(=O)(=O)N2CCc3ccccc32)cc1 (configuration not stated) | – | inactive: -5.59%
58 | CCCOc1ccc(CNCCCOCC)cc1OC | inconclusive: 25.1 µM [inhibitor, single point] | –
59 | COc1ccc(OC)c(C2=Nn3c(nnc3-c3ccco3)SC2)c1 | – | inactive: -1.38%
60 | CSc1sc(C(=O)NC(=O)NCc2cccnc2)c(C)c1-c1ccon1 | inconclusive: 28.2 µM [inhibitor, single point] | –
61 | CN(C)C(=O)c1ccc(-c2nc(Nc3ccc(F)cc3)c3ccccc3n2)cc1 | inconclusive: 39.8 µM [inhibitor, single point] | –
62 | Cc1ccccc1NC(=O)C1c2cccc[n+]2CC(=O)N1Cc1ccc2c(c1)OCO2 (configuration not stated) | inconclusive: 7.94 µM [inhibitor, partial curve] | –
63 | O=c1c2ccccc2oc2ncccc12 | inconclusive: 39.8 µM [inhibitor, single point] | –
64 | O=C(O)C1Cc2ccccc2CN1C(=O)CCl (configuration not stated) | – | inactive: -24.4%
65 | CCOc1ccc2oc(-c3ccccc3)c(C(=O)O)c2c1 | inconclusive: 28.2 µM [inhibitor, partial curve] | –
66 | O=C(CNc1cccc2ccccc12)N/N=C/c1cccc(Oc2ccccc2)c1 | active: 28.2 µM | –
67 | CC(C)Cn1c(N)c(S(=O)(=O)c2cccs2)c2nc3ccccc3nc21 | inconclusive: 31.6 µM [inhibitor, partial curve] | –
